Results on two molecules are retold here after article PMC5800818, “A Numb–Mdm2 fuzzy complex reveals an isoform-specific involvement of Numb in breast cancer” (The Journal of Cell Biology, 2018).

Holding throughout (conditions): both partners purified
Experiment [1] concerns the target T1, Numb-PTBi (Numb^20–175), purified (human, UniProt P49757 20-175).
T1 construct: For NMR the protein was isotope-labelled; source: E. coli BL21 Rosetta pLysS, purified (NTA beads, Superdex-200)
T1 sequence (looked up): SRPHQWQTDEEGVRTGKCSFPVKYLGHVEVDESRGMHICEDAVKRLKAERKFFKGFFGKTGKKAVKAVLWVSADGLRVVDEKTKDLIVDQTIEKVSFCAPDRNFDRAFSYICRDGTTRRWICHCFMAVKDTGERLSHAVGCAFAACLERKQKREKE
Description: SEC; Superdex-200; species injected at 300 µM, equimolar amounts.

Experiment [2] deals with T2, Numb isoform-1 full-length, purified (human, UniProt P49757-1 1-651).
T2 construct: Numb isoform-1, human; also called Numb-1; FL; source: purified
T2 sequence (looked up): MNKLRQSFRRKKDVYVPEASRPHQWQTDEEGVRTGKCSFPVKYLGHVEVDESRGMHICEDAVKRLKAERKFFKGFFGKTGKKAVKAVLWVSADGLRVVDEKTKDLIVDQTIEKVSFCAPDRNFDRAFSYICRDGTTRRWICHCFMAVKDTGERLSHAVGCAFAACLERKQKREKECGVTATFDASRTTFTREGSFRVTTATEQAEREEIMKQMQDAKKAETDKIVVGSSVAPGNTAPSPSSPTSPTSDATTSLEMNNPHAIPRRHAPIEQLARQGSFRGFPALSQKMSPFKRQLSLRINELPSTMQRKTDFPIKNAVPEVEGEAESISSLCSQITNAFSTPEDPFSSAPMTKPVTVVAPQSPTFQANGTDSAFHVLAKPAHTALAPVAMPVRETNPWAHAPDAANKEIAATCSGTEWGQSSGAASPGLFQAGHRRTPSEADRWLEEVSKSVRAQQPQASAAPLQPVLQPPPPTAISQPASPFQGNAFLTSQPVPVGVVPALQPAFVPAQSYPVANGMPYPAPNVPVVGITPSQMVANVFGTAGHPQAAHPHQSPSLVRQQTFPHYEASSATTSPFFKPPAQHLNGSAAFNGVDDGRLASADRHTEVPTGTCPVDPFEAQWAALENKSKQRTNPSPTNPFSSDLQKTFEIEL
The experiment in a line: fluorescence polarisation; 50 nM rhodaminated Mdm2 216–302 with increasing concentrations of the ligand; 10 mM Tris-HCl pH 7.5, 0.15 M NaCl, 0.5 mM EDTA, 1 mM DTT. For orientation: Fluorescence polarisation rises when a labelled molecule tumbles more slowly, as on binding a larger partner.

Experiment [3] deals with T3, PTBi harboring the F162V mutation (human, UniProt P49757 20-175, F162V).
T3 construct: also called PTBi F162V; source: purified
T3 sequence (looked up): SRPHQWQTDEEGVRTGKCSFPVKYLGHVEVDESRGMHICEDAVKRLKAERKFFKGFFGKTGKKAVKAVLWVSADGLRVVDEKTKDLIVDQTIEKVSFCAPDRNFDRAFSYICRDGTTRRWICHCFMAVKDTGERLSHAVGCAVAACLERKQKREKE
The description is as above.

In experiment [4] the target is T4, PTBi in complex with GPpY (human | , UniProt P49757 20-175, phosphotyrosine at position 6 (AYIGPpYL)).
T4 construct: GPpY phosphopeptide, as m14; also called Numb-PTBi–GPpY complex
Described as above.

Experiment [5] addresses T1, Numb-PTBi (Numb^20–175), purified. The description is as above.

B1: Mdm2^[…], purified (domain or fragment)
chain: not shown
notes: The GST tag was removed with PreScission protease 'when required'; 15N-labelled in part of the NMR work; source: E. coli BL21 Rosetta, purified
As for B1, the binding result in experiment [1] is reported as “binds”.

B2: rhodamine-labeled Mdm2^[…] (domain or fragment)
chain: not shown
modifications: rhodamine label (site not stated)
notes: as m32 with the label; source: purified, rhodaminated in vitro
Regarding B2, the binding result in experiment [2], in experiment [3], in experiment [4] and in experiment [5] was “binds” throughout.
